Screen size: about 310,000 compounds; about 14,000 (4.5%) showed an effect of 50% or more. Effects have a minus sign here. This is one part of the list.
molecular target: human ether-à-go-go-related gene (hERG) potassium channel (human, UniProt Q12809); assay: primary screen, population patch clamp on CHO cells stably expressing hERG
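Also: peak tail current of the secondary pulse compared with the same well before compound.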

Sequence of human ether-à-go-go-related gene (hERG) potassium channel (Q12809 whole entry, looked up): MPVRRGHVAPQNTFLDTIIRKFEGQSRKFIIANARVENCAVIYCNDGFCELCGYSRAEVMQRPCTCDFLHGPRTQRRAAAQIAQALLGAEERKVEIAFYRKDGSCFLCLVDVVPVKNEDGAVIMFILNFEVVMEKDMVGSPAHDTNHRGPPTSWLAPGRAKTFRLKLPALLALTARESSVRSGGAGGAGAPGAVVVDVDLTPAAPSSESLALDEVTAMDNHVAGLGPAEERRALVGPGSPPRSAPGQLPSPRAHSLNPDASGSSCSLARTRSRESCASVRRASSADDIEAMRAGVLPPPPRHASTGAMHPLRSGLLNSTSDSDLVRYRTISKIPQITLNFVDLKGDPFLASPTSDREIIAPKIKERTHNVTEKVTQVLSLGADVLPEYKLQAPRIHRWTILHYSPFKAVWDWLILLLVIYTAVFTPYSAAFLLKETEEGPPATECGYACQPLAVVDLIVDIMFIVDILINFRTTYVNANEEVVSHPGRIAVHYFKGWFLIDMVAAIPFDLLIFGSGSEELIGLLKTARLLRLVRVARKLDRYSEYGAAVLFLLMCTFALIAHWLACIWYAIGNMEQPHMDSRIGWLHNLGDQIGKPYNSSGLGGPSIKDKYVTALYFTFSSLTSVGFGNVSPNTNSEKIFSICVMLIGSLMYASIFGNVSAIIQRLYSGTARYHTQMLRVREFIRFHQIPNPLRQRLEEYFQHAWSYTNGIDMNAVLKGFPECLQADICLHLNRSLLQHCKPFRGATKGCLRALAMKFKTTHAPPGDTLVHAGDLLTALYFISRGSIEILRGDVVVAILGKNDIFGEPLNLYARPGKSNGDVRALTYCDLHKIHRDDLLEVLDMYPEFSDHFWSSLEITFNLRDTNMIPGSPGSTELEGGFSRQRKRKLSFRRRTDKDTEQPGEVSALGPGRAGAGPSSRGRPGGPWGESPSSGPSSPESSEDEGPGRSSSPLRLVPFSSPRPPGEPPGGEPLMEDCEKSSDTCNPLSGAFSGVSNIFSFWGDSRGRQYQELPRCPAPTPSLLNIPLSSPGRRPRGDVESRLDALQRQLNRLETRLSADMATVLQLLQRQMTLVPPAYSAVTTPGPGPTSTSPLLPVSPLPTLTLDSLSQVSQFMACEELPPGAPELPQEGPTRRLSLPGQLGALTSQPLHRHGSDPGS

| SMILES | hERG current change (%, negative = inhibition) at 10uM |
| --- | --- |
| Cn1c(=O)n(C/C=C/c2ccccc2)c(=O)c2c1nc1n2CCCN1Cc1ccccc1 | -0.911% |
| N=c1n(Cc2ccccc2)c2ccccc2n1Cc1ccccc1 | -62.1% |
| CCn1c(SCc2ccc(C(=O)Nc3nccs3)cc2)nnc1-c1ccc(N)cc1 | -22.2% |
| c1ccc(CNC2=NCCS2)cc1 | 18.1% |
| COc1cc(/C=N/NC(=O)Nc2ccccc2)ccc1OC(C)=O | 11.7% |
| O=C(Cn1cc2c(n1)CCCCC2)N1CCCCC1 | 2.46% |
| CCCc1nc(NCc2ccco2)c(C#N)c2c1COC(C)(C)C2 | 6.37% |
| CCC(C)Nc1nc2ccccc2n2c(C)nnc12 (centres unmarked) | -18.9% |
| COc1cccc(C(=O)CC(=O)C(=O)Nc2cc(OC)c(OC)c(OC)c2)c1 | 0.438% |
| O=C1CC(c2ccc(F)cc2)CC(O)=C1C=NCCN1CCNCC1 (centres unmarked) | 6.09% |
| C/C(=N\NC(=O)C(N)=O)c1ccc(Br)cc1 | 8.48% |
| O=S(=O)(c1cc(C(F)(F)F)ccc1Cl)N1CCCCCC1 | -2.01% |
| C/C(=N\NC(=O)c1ccc(NS(=O)(=O)c2cccs2)cc1)c1ccc2ccccc2c1 | -5.59% |
| CCCn1c(C(C)Nc2nc(-c3ccc(C)cc3)cs2)nc2cc(Cl)c(Cl)cc21 (centres unmarked) | 0.722% |
| CCOC(=O)c1[nH]c(C)c(/C(O)=C2\C(=O)C(=O)N(CCN3CCOCC3)C2c2ccco2)c1C (centres unmarked) | 6.4% |
| CNC(=S)NC1CC2CCCC(C1)N2CC(C)C (centres unmarked) | 1.02% |
| CCOC(=O)Cn1cc(C=C2C(=O)N(C)C(=O)N(C)C2=O)c2ccccc21 | 4.93% |
| O=C(COC(=O)CNC(=O)c1cccs1)Nc1ccccc1C(F)(F)F | 49% |
| Cc1cccc(NC(=O)C2CCCN(S(=O)(=O)c3cccc4nsnc34)C2)n1 (centres unmarked) | -16.9% |

| SMILES | hERG current change (%, negative = inhibition) at 10uM |
| --- | --- |
| Cc1ccccc1N(C(=O)c1csnn1)C(C(=O)NC1CCCCC1)c1ccncc1 (centres unmarked) | 10.7% |
| O=S(=O)(Nc1ncccn1)c1cc(Cl)ccc1Cl | 1.26% |
| COc1ccc(OC)c(NC(=O)CN(C)CC(=O)Nc2ccccc2Br)c1 | 3.51% |
| CC(CCOC1=NS(=O)(=O)c2ccccc21)NC(=O)C(=O)Nc1ccccc1 (centres unmarked) | 4.69% |
| O=C(COC(=O)C1COc2ccccc2O1)Nc1cccc(S(=O)(=O)N2CCCCC2)c1 (centres unmarked) | 3.48% |
| N#Cc1ccccc1S(=O)(=O)N1CCN(CC(O)COc2ccccc2F)CC1.O=C(O)C(=O)O (centres unmarked) | -8.58% |
| CN(C)C(CNC(=O)CN1C(=O)NC2(CCc3ccccc32)C1=O)c1ccco1 (centres unmarked) | 21.9% |
| Clc1ccccc1SCc1nc2ccccc2[nH]1 | 0.186% |
| O=C(CN1C(=O)C2C3C=CC(C4CC34)C2C1=O)NCc1ccco1 (centres unmarked) | -9.93% |
| O=S(=O)(NCCN1CCOCC1)c1ccc(-c2ccc(S(=O)(=O)NCCN3CCOCC3)cc2)cc1 | 23.4% |
| COCc1cc(=O)[nH]c(Nc2nc3ccc(C)cc3o2)n1 | -10.3% |
| CC1CCCCC1NC(=O)Cn1c(CN2CCCCC2)nc2ccccc2c1=O (centres unmarked) | -24.6% |
| COc1ccccc1N1CCN(C(=O)c2ccc3c(=O)n(Cc4ccco4)c(=S)[nH]c3c2)CC1 | -17.4% |
| CCc1cccc(NC(=O)CN(C)S(=O)(=O)c2cccc3cccnc23)c1 | -9.11% |
| O=C(NC1CC1)c1cccc(S(=O)(=O)N2CCOCC2)c1 | 3.69% |
| CCOc1ncccc1C(=O)OCC(=O)Nc1ncc(C(F)(F)F)cc1Cl | -9.28% |
| C/C(=N\Nc1ccc(S(=O)(=O)Nc2ccccc2)cc1[N+](=O)[O-])c1ccc(N2CCOCC2)cc1 | -12.8% |
| O=C(c1ccccc1-c1nc2ccccc2[nH]1)N1CCOCC1 | -5.47% |
| C=CCn1c(-c2cnn(-c3ccccc3)c2N)n[nH]c1=S | 13.5% |

| SMILES | hERG current change (%, negative = inhibition) at 10uM |
| --- | --- |
| C/C(=N\OC(=O)NC(C)C)c1sc(-c2ccc(Cl)cc2)nc1C | -11.3% |
| CCCNC(=O)CN1C(=O)NC(CC)(c2ccc(F)cc2)C1=O (centres unmarked) | 5.38% |
| CN(C)/C=C(\C=[N+](C)C)c1[nH]ncc1[N+](=O)[O-].[O-][Cl+3]([O-])([O-])[O-] | 8.25% |
| CC(=O)Nc1nonc1NC(=O)c1ccc(C(C)(C)C)cc1 | -10.6% |
| CCN(CC(=O)Nc1ccccc1C(F)(F)F)CC(=O)NC1CC1 | 4.64% |
| C=CCN(CC=C)C(=O)c1cccc(OC2CCN(S(=O)(=O)N(C)C)CC2)c1 | 11.8% |
| COc1cc2c(C#N)c(N3CCN(c4ccccc4OC)CC3)nc(N)c2c(N)n1 | 5.45% |
| Cc1sc(NC(=O)CN2CCOCC2)c(C(=O)c2ccccc2)c1C | -18.3% |
| O=C(O)C1CC(=O)N(c2ccc(F)c(F)c2)C1 (centres unmarked) | 13% |
| O=[N+]([O-])c1ccccc1OCc1nc(-c2cccs2)no1 | 19.1% |
| Cc1ccc(NC(=O)c2ccncc2)cc1[N+](=O)[O-] | -1.98% |
| CCc1ccc(NC(=O)c2ccc(NC(=O)C3CCCO3)cc2)cc1 (centres unmarked) | 22.5% |
| CCOc1ccccc1NC(=O)[C@@H](NC(=O)c1ccccc1F)C(C)C | -6.35% |
| COc1ccccc1Oc1ccc(S(=O)(=O)N2CCCC2)cc1 | -77.3% |
| COc1cc(/C=N/NC(=O)COc2ccccc2[N+](=O)[O-])ccc1OC(=O)c1ccco1 | -1.29% |
| Cc1ccc(N(CC(=O)NC(C)(C)C)C(=O)CS(=O)CC(=O)Nc2ccc3c(c2)OCO3)cc1 (centres unmarked) | -0.306% |
| CSC(C(=O)c1cc2ccccc2o1)c1ccccc1 (centres unmarked) | 7.64% |
| COc1cccc(CNC(=O)c2ccc(C)c(S(=O)(=O)N3CCCCC3)c2)c1 | -19.5% |
